# PubChem BioAssay (NCI)
# A structure can be active in one record and inactive in another.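 Compound tested at a single concentration for 48 hours in 96-well plates; a percent growth value below 10 was scored as active.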 Some entries of the source have several records that differ or are many. This list holds those alone. An entry can have further records. These are repeated runs of one drug, at the concentration stated with the values; each value is one run. Counts like (3×) say how often a value occurs here.
# Test system: NCI-H322M lung
# Test: NCI-60 one-dose screen, 48 h (100 = growth as untreated, 0 = no growth, -100 = all killed)
smiles,measurement,setting,value
COc1cccc2c1C(=O)c1c(O)c3c(c(O)c1C2=O)C[C@@](O)(C(=O)CO)C[C@@H]3OC1CC(N)C(O)C(C)O1 (stereo not given in full),growth,"0.25 µM, runs of 2012","inactive: 101 (5×), 83.3, 88.6, 74.9, 91.5, 98.5, 87.3, 78.7, 89.8, 88, 84.5 (2×), 90.2, 87.1, 102, 100, 94.7, 96.6, 91.6, 90.8 (2×), 99.5, 98.1 (2×), 94.4, 93.5, 86.8, 93.4, 92.1, 85 (2×), 96.7, 95.2 (3×), 92.2 (2×), 96.3, 94.5, 107, 95.3, 97.5, 95.9, 104, 95 (2×), 96.8, 91.4, 85.8, 103, 90.4 (2×), 83.2, 85.5, 93.8, 88.4, 87.4, 46.8%"
same,growth,"0.25 µM, runs of 2013","inactive: 81.6 (3×), 86.3 (3×), 84 (2×), 89.7, 83.6, 93.6, 82.2, 88.4, 85.6, 91.6, 86.7, 88.1 (2×), 85.5 (2×), 87.2 (2×), 85.7 (2×), 81.4, 84.3 (2×), 87.4, 96.2, 92, 88.6, 80.9 (2×), 99.7, 95.1 (2×), 86.9 (2×), 94.1, 90.8, 89.8, 98.1, 89.5, 99.1, 89.1, 94.8, 92.5, 86.4, 86.8, 97.3, 78.9, 88.7, 76.6, 90.3, 84.8, 91.2, 72.8, 68.5, 64.5, 72.5, 58.3, 73.8 (2×), 84.1 (2×), 80.7, 79.2, 93.4, 75.8%"
same,growth,"0.25 µM, runs of 2014","inactive: 83.5, 81.8, 70.5, 84.1, 85 (2×), 92.7, 85.7, 88.4, 90.4, 86.8 (2×), 90.9, 82.1 (2×), 90.5, 94.1, 87.1 (2×), 90.6, 87.2, 88.5 (2×), 83.2, 89.3, 84.5, 81.7, 89.1, 92.3, 87.4, 88.3 (2×), 85.1, 84 (2×), 91.4, 82.8 (2×), 81.6 (2×), 89.2, 91.5, 82.2, 72.3, 76.5 (2×), 77.8, 76.6, 73.6, 76.9 (2×), 76.1, 85.5, 82.9, 82.4, 78.1, 76.7, 78.8 (2×), 75.8 (2×), 80.4, 86.1, 79.2, 84.7, 81.2, 81.4, 71, 74.8, 81.9, 82.3, 78.2%"
same,growth,"0.25 µM, runs of 2015","inactive: 84.1 (2×), 75.3, 73.9, 73.5, 80 (2×), 79.8, 88.9, 74.2, 85.1 (2×), 82.2, 78.8 (2×), 97.4, 68.8, 75 (2×), 76.8, 62.1 (2×), 78.1, 71.9, 77, 84.3, 79.5, 80.5, 81.5 (2×), 78, 78.7, 81.6, 72.3, 82.5, 77.6, 70.6, 79.7 (2×), 69.6 (2×), 66.6, 79.2 (2×), 75.1, 68 (2×), 66.7, 76.1, 69.8, 72.8, 70.2, 69.1 (2×), 70.9, 74.1, 84.5, 64.5, 84.7, 71, 77.3, 76.5, 72.9, 74.9, 77.1, 74.8, 73.6, 79, 73.2, 73.8, 87.1, 80.6, 81.7, 85.5%"
same,growth,"0.25 µM, runs of 2016","inactive: 81.8 (2×), 74.4, 79.5 (2×), 66.9, 70.7, 73.8, 75.9, 65.8, 75.8, 72.7, 76.8 (3×), 65.4, 75.2 (2×), 61.4, 64.5, 64.7, 66.2 (2×), 70, 63.3, 63.4, 75.5 (2×), 69.1, 77.2, 77.6 (2×), 59.6, 76.1, 64.2, 70.8, 73.6, 63, 71.7, 72.2, 85.4, 71.5, 82.1, 74.3, 79.6 (2×), 72.8, 69.9, 69.8, 77.8, 66.3, 64.9, 86.4, 82.5, 82.3, 77.1, 79.8, 80.3, 81.5, 81.2, 80.6, 81.3, 82.4, 82, 83.2 (2×), 73.7, 76.5, 78.8, 75.1, 77, 74.1, 78.5, 80, 82.9%"
same,growth,"0.25 µM, runs of 2017","inactive: 75.7 (2×), 67.7, 71, 72.9 (2×), 75.4, 73.4 (2×), 75 (4×), 73.7, 72.2 (4×), 74.7 (2×), 74.2, 69.9, 71.8, 78.2, 74.9 (2×), 68.9, 72.5 (2×), 75.5, 71.9, 70.9, 70 (3×), 74.6 (3×), 73.3 (2×), 75.8, 69.7 (2×), 75.1 (2×), 70.8, 73.6 (2×), 72.1 (4×), 71.5, 76.1, 74.3, 75.6 (2×), 72.8, 76.8, 71.6 (2×), 72.3, 78.1 (2×), 73.5 (2×), 70.5, 72, 71.2, 80.6, 69.1, 69.5, 72.7, 65.6, 73.8, 77.2, 67.5, 75.9, 78%"
same,growth,"0.25 µM, runs of 2018","inactive: 80.6 (2×), 80.8, 74.2, 74.3, 74.8, 71, 68.4, 72.1 (2×), 68.1, 71.2, 67, 79, 83.6 (3×), 78.7 (4×), 82.9, 75.6, 86.7, 83.4, 79.5, 77.1, 78.8, 74.6, 72.5, 70.1, 77.2, 72 (2×), 78.1, 79.7, 72.2, 78.2, 75.8, 81 (2×), 75.2, 80.1, 85.5, 74.4, 82.8, 82.2, 78.9, 81.8, 75.7, 69.1%"
same,growth,"0.25 µM, runs of 2019","inactive: 64.7, 69.5, 68.8, 72.5 (2×), 73.9 (2×), 68.1, 69.3, 86.4, 84.8, 82.1, 78.8, 76.1 (2×), 77.2 (2×), 75, 77.3 (3×), 73.1, 74.9, 83.2, 81, 79.5, 80.8 (2×), 73.5, 77, 78.1, 76.9, 75.2, 77.1, 82.2, 78.2, 75.6, 86.5, 81.8, 76.8, 77.8%"
same,growth,"0.25 µM, runs of 2020","inactive: 74.2, 77.6, 77.8, 74.1, 75.2 (2×), 72.8 (2×), 80.1, 76.7 (2×), 74.9, 73.6, 79.9, 75.1, 72.1, 72.3, 74.4 (2×), 81.5, 74, 82.1, 76.1, 78.2, 75.9, 79%"
same,growth,"0.25 µM, runs of 2021","inactive: 82.1, 82.9 (2×), 82.8, 85.2, 79.5 (3×), 80.1, 80 (2×), 81.6, 78.1, 78.8 (2×), 76.1, 79.6, 76.4 (3×), 80.9, 78.5, 76.8, 77 (2×), 79.2, 81.3, 77.1, 77.6, 73.3, 86.1, 71.2, 64.3, 78 (2×), 73.8 (2×), 73.5 (2×), 74.2, 81.9, 82.4, 80.6, 81, 75.7, 75.4, 74.9, 63.6, 83.6, 70.1, 68.5, 78.7, 77.3%"
same,growth,"0.25 µM, runs of 2022","inactive: 43.3, 45.3, 70.8, 78.9, 32.3, 73.4, 59.9, 74.4 (2×), 73.7, 79.5, 73.2, 72.9, 74.1, 78.1, 77.9, 73.5, 86.2, 90.9, 75.9, 88.4, 87.3, 97.8, 77.6, 78.7, 76.5%"
same,growth,"25 µM, runs of 1991","active: -35.2, -14, -29.6, -23.7, -18.6, -33.8, 0.588, -22.4, -15.3, -25.6, -28.7, -11.7, -37.9, -56.2, -32.9, -34.9% and inactive: 60.2%"
same,growth,"25 µM, runs of 1992","active: -54.9, -44.5, -47.9, -28.1 (2×), -31.7, -22.5, -35, -40.4 (2×), -45.3, -30.3, -40.1 (2×), -38.5, -35.8, -21.2 (2×), -32.3 (2×), -7.97, -33.6, -40.3, -24.9, -30.9, -46.9, -29.6 (2×), -35.4 (2×), -24.8, 4.87, -2.33, -23 (2×), 0.064, -46.6, -44.6 (2×), -48, -26.4 (3×), -31.5 (2×), -38.3, -7.02, -18.4, -14.5, -32.7, -37.6, -32.4, -48.7, -31.1, -41.2, -18.3, -24.2, -43.6, -34, -31.6, -48.4, -33, -22.3, -27 (2×), -36.6, -11.6, -32.5 (2×), -18.2, -31.2, -27.4, -35.6, -27.2, -2.29, -12.4, 4.05, -29.1, -27.5, -27.3, -18.6, -33.5, -22.4, -18.9, -29.4, -62.3, -10.9, 9.69, -28.7, -17.9, -41.6, -41.5, -55.1, -33.2, -14.6, -37.7, -35.1, -51.8, -22.7, -39.1 (2×), -23.2, -15.4, -28.5, -37.2, -32.1, 6.69, -40.5, -44, -66.4, 1.5, -36.8%"
same,growth,"25 µM, runs of 1993","active: -19.1, -22.3, -36, -28.9, -38.2, -30.3, -35.5, -33.6, -41.1, -31.7, -19.8, -16.9, -27.3, -13.8, -25.5, -41.7, -29.8, -12.3, -5.64, -17.4, -24.9, -45.7, -45.6, -11.5, -29.6 (2×), -43.6, -24.4, -37.7, -32.6, -20.5, 2.35, -45.2, -27.4, -7.86, -10.2, -33.4, -41.6, -50.6, -59, -55.2, -35%"
same,growth,"25 µM, runs of 1994","active: -40.4, -59.3, 2.64, -39.7, -10.6, -69.1, -16, -20.4, -18.4, -43.7, -40.7, -63.9, -38.3, -16.8, -35.7, -35.1, -25.6, -39.2, -2.64, -9.33, -9.08, -24.4, -26.2, -12.3, -26.6, -36.8, -1.78% and inactive: 11%, 10.2%"
